# Source: paper PMC10726135
# The list shows a part of the results. At the low end of the ranking the order means little. Measured with an extract: partners may take part in the binding.
# Target: T1, HNF4alpha2 (COS-7 nuclear extract) (UniProt P41235)
# T1 sequence: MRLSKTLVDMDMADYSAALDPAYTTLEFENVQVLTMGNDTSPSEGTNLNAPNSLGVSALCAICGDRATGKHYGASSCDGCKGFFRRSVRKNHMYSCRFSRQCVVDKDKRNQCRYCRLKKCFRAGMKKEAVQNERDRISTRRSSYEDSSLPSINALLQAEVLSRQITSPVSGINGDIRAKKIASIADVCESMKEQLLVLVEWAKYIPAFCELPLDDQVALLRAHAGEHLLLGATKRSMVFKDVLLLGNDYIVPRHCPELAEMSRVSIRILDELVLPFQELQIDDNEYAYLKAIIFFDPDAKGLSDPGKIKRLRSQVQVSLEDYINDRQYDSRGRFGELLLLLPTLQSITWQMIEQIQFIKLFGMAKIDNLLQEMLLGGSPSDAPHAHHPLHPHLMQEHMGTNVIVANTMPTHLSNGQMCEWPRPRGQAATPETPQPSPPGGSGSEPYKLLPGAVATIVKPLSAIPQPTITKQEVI
# Experiment: protein-binding microarray
# Details: COS-7 nuclear extract on double-stranded Agilent 4x180k PBM; binding buffer, salt, pH and temperature not given; high values mean tight binding; double strand, one strand shown; sequences stand for … in …GCCTAGGGAGATTAGAGTATCGGTCGA
row,Sequence,binding signal (log2 normalized intensity)
1,GAAAAGAAAAAACCCATCCACCCATCCAAA,2.69
2,GAGTTTAAGGTTGTACTTTGGAGTTTACTT,3.85
3,ATACTCCAAGCCTAGAAAAACAACTAAAGG,-1.16
4,ATCGGCTTCCCTGGTCCTCAGGCCTTTGGA,1.26
5,CCCTACGTAAATGCACGGAAGCCTTCCCCG,-1.13
6,AACCTTTGATCATTCCTGCACAGGACTGCT,2.81
7,TCACCCGATAAGCTGACCCCAAAACCCCCA,5.75
8,ACACAAAGGCAGAGCACTAAATCTCTCCTA,-1.22
9,TAAAACTAGGAGAGTCCGGGGCAAACAAGG,-0.999
10,AGTCCCAATCCCCCATCTATTTACAAAAGA,2.71
11,TAATGAGTGCTATCCCTGGAGCCTTAGAAG,-1.13
12,AGGGAAGAGGCAAGGAAAGATAAATAGTGA,-1.07
13,GGTATTCTTTCATCCCTCTCCCGCCTCTTG,1.54
14,TGGTTTTGTAAATATAGGATCATGTTGTCT,2.09
15,TGTTGGGGAATCAGTCCATAAATACACAAT,-0.733
16,TCCACACCCCCCACTCTTCATATCTTCCCA,3.07
17,AAGGCCAAACACGGACAGGCAGGCCCAGAC,-1.14
18,AACGGTTCAAAGGACAGACTTTGGACCTGG,7.15
19,TACATTGCATATCAGCATGGCTGCAGAGAA,-1.1
20,GCGTGAGTTTGCTGTCTTGACTTGGTTCGG,1.75
21,TGCCTCTCTGAACCTTCCTTAGAGAATGCT,-1.06
22,CAGGAATGTTTCCTCTCCCAGCCCCTAGCC,3
23,GCTAAGATGTAGCAAGAATGTAAATAGCTA,-1.18
24,CTGACCTTAGACCCTCAGGCTCCACCGGAT,1.26
25,ACTTTGAAGGCCCCAATTGCCAAGGGGGTG,-1.06

row,Sequence,binding signal (log2 normalized intensity)
1,AGGCAAACATAAACTCAGAGTCAAATCCCC,-0.631
2,GACTTGAAGCCAGACTCTGCCATTTCCCAG,-1.11
3,CCAGGGACTTACTCAACTAGCTCCATGTGA,-1.14
4,AGAAGGGGTCAGGTAAGACAGCCTCCTGAA,-1.07
5,CCCCTAAAGGAGGCAAGGTCCAAACTTCTC,1.7
6,AAAAACATGGGTCTCTTCCTCAGTTTGTTC,1.71
7,GATGCATGATTGCTCTCTACTTGGTGGGAG,0.687
8,CTCATTAATCATCCGTCACCCAGACAGACT,-0.98
9,GTAAGGGGAGGAGCTGAAACAGTCTGATTC,-1.07
10,ATCCACCCATCCAAAGGTCAGCAATCTCAA,2.93
11,TCTCTCATGCTATGCTCTCTCTCCACCTGG,0.574
12,CATCACCTAACTTGTGGCTGGGTGATCTGG,1.54
13,CTCTTTTTTCTTGTTGACTTTCCTATTGTC,1.83
14,AGAGAGAGAGAATGACCCTTGCTTGACCCA,3.12
15,ATGGAGATGAGAAACTTATTGTGAACTGGA,0.573
16,ACCAGGGCAGGGAAAGGGGGTTTGCAACCT,-1.13
17,TCCTACCTTTCCCCTAAAGGAGGCAAGGTC,0.0723
18,AGCCATTTATCAGGGTAATGAGTGCTATCC,2.13
19,TGTGGAGGTCTACCAGGAATATTGCCCCCT,5.08
20,GTTGAGAACTGAGTTTAGAATTTGAACTAT,2.49
21,TGGCATACTACAGAAATCTTTAAGTGCATT,1.03
22,TACCAAAGCCATGGCTCCAACCCGATTCTG,-1.11
23,ACTACATTTCCAAGACCTCTTTGCGGATAG,-0.361
24,GCAAGCTCCTGGTTGGGGCCTCCCTCCGTG,-1.13
25,CCCCACCCTCCCACGCACTCGCCTGACTCC,3.69

row,Sequence,binding signal (log2 normalized intensity)
1,CTCCTAAAGGCAGCCCCTTATCAGGAGAGG,-1.2
2,CTCTTGCTTCACAGCCCTCCAACTATGCTA,0.628
3,TAGCCTTATCTCAGATGAGACTTTGGACTT,7.96
4,TTTATAGGCTAGAATGGAAACCAATAACTG,-1.23
5,ATGACCTTTACCCCCATTTGGTAATGGGCC,4.83
6,ATTATCTGCTTTTATGACCTTTGACTGCAG,6.64
7,ATTGAAGTTACGTATTTTTGCCAAGGATAT,0.87
8,GAGGTGGAAGTGGCAGATTAGAGACCTCTA,-1.26
9,AGGCCTATGGCGAAAAAGGAAATATCTTCC,-0.871
10,CCACTGACAGGAGGTATGCCAGGAATGCTG,-1.14
11,TTGTTTCATTGCACAGTTACTCCACAACTT,-0.769
12,AAGCTCTGGAGTCCAAAGGTCAGCAAGCCT,7.73
13,AATGTATGGGCTATTTATGACGGTGTATGC,1.13
14,CTACATTCAAATCCTTGCTCTGTGGTTTAG,1.07
15,TCTGCAGTTCTGGGCCAAAGGTCATACCTG,5.54
16,TCAAAGCATTCCACATTCTCCACTGGGAAG,-1.12
17,GACCTCCTGTCTCATCCTGTGACCAAGAAT,0.365
18,CGACTTGCCTTGTGTACTCTATCCAGTAGA,0.982
19,GGCCAGCGCCAGGCTGGGGGCAGAGTTCAC,4.55
20,CTCAGTCATACCACATGGATGGATTCAGAT,0.259
21,GGCCCAGGAAGCTCCAGCGGGGTTTGAATC,-1.12
22,TCTTCCATCGGACTTTGATCTGCCACATAC,5.79
23,GTGTTTGTCCTTTGTTGCAATGCTGGAACA,1.25
